Laboratory results as given in PubChem BioAssay AID1159614 (National Center for Advancing Translational Sciences (NCATS), 2016).
The whole screen tested about 45,000 compounds, of which about 65 (0.1%) were called active. Calls follow the shape of the dose curve; as a rule, active = well fitted activation curve with a large enough effect; inconclusive = small, poorly fitted or top-dose-only effect; inactive = no such curve, though single readings can be large or run the other way. The list shows a part of the results.

Each compound was assayed against Galactocerebrosidase (Homo sapiens) (UniProt P54803) (assay: A Novel Cell-Based Assay to Identify Small Molecules for B -Galactocerebrosidase). Settings: 145M-Twi-hGALC-G270D cells (Twitcher mouse brain line with human GALC G270D), HMU-beta-Gal fluorescence, 48 h; series mostly up to 57.5 µM; activation: at the top concentration.
Method in brief: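 Fluorescence readout: HMU-β-gal cleavage by mutant GALC (0.1 mM final, citrate/phosphate pH 5.2 with 1 mg/mL taurocholate), stopped with carbonate/bicarbonate plus Triton X-100. Cells: murine Twitcher 145M-Twi expressing human G270D GALC; qHTS for activators.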
Also: 0% is about no effect; nearly all actives have a fitted effect of over 65% in size.

UniProt P54803, sequence (P54803 whole entry, looked up): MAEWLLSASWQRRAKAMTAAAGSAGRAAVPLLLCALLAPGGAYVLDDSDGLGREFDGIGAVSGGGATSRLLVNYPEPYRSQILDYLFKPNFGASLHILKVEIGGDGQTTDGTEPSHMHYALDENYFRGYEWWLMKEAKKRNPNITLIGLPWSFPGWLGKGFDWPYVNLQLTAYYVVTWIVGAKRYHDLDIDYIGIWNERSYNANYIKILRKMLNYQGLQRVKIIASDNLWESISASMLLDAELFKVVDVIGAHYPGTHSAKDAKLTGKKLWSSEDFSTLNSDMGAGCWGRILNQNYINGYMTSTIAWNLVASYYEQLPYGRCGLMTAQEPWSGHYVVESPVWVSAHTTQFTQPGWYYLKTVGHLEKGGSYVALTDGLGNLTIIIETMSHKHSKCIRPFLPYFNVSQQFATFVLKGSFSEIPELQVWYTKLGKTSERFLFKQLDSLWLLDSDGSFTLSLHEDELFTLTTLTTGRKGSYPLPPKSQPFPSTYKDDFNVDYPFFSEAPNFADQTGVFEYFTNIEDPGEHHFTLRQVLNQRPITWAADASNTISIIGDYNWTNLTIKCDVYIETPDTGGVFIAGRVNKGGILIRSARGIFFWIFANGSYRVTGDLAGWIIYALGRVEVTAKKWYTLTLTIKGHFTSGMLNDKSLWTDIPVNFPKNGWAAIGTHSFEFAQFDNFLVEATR

Row | SMILES | activation
1 | Cc1ccc(N2CCN(C(=O)c3cn(C)c4ccc(S(=O)(=O)N5CCCC5)cc4c3=O)CC2C)cc1 (configuration not stated) | inactive: -24.8%
2 | Cc1cc(Nc2cccc(Br)c2)n2c(nc3ccccc32)c1C#N | inactive: -1.33%
3 | CCOc1cc(C(Nc2cc(C)ccn2)c2ccc3cccnc3c2O)ccc1OC (configuration not stated) | inactive: -19.8%
4 | CC(=O)Nc1ccc(S(=O)(=O)NCC2CCC(C(=O)NCc3ccccc3)CC2)cc1 (configuration not stated) | inactive: -5.59%
5 | COc1ccccc1NC(=O)c1c(C)cc(C)nc1SCC(=O)Nc1ccc(C)cc1 | inactive: -11.8%
6 | COc1ccc(NC(=O)Cn2nnc(C(=O)NCc3ccco3)c2N)c(OC)c1 | inactive: -15.9%
7 | COc1cc(NC(=O)CSc2nc(-c3ccccc3)no2)cc(OC)c1 | inactive: -24%
8 | Cc1cc(C)cc(-n2c(SCC(=O)NCc3ccc(F)cc3)nc3c([nH]c4ccccc43)c2=O)c1 | inactive: -23.3%
9 | Cc1ccc2c(c1)c(=O)c1ccccc1n2CCCC(=O)Nc1ccc(Cl)c(Cl)c1 | inactive: -17.2%
10 | CCOc1ccc(NC(=O)CN2C(=O)c3ccccc3Sc3ccc(C(=O)OC)cc32)cc1 | inactive: -8.84%
11 | O=C(C1CCC(Cn2c(=O)c3sccc3n(Cc3ccccc3F)c2=O)CC1)N1CCOCC1 (configuration not stated) | inactive: -12.3%
12 | CN(C)c1ccc(C(=C2C=CC(=[N+](C)C)C=C2)c2ccc(N(C)C)cc2)cc1 | inactive: -16.8%
13 | COc1cccc(NC(=O)CN2C(=O)CC(c3ccco3)Sc3ccccc32)c1 (configuration not stated) | inactive: -5.07%
14 | Cc1cccc(C)c1NC(=O)C(=O)NCC(c1cccnc1)N1CCc2ccccc21 (configuration not stated) | inactive: -17.7%
15 | COC(=O)c1sc(-c2ccccc2)cc1NC(=O)c1cccc(Cl)c1 | inactive: -11.7%
16 | CCOC(=O)c1c(NC(=O)c2ccc(S(=O)(=O)N(CC(C)C)CC(C)C)cc2)sc2c1CCN(CC)C2 | inactive: -23%
17 | O=C(Nc1nc(-c2ccccc2)ns1)c1ccc(Cl)cc1 | inactive: -28.6%
18 | Cc1cccc(NC(=O)C(NS(=O)(=O)c2cccc3nsnc23)c2ccccc2)c1C (configuration not stated) | inactive: -10.9%
19 | COc1ccc(CN(C(=O)c2cc(=O)c3ccccc3o2)C2CCS(=O)(=O)C2)cc1OC (configuration not stated) | inactive: -8.37%
20 | COc1ccccc1N1CCN(C(=O)c2ccc3c(c2)N(Cc2cc(C)ccc2C)C(=O)c2ccccc2S3(=O)=O)CC1 | inactive: -4.66%
21 | CCOC(=O)N1CCc2c(sc(NCc3cccs3)c2C(=O)Nc2cc(Cl)ccc2OC)C1 | inactive: -6.12%
22 | CC(C(=O)O)c1ccc2c(c1)CC(=O)c1ccccc1S2 (configuration not stated) | inactive: -13.1%
23 | CCN(CC)c1ccc(NC(=O)C2CCN(S(=O)(=O)c3ccc4c(c3)oc(=O)n4C)CC2)c(C)c1 | inactive: -1.85%
24 | CCOC(=O)c1c(C)c(-c2ccccc2)n(CC(=O)NCc2ccccc2)c1C | inactive: 0.0706%

Row | SMILES | activation
25 | O=C(OCC(COC(=O)c1cccnc1)(COC(=O)c1cccnc1)COC(=O)c1cccnc1)c1cccnc1 | inactive: -20.6%
26 | Cc1ccc(C(=O)NCC(c2ccco2)S(=O)(=O)c2ccccc2)cc1C (configuration not stated) | inactive: -4.43%
27 | COc1cc2c(=O)c(S(=O)(=O)c3ccc(C(C)C)cc3)cn(Cc3ccccc3C)c2cc1OC | inactive: -8.65%
28 | CCOC(=O)c1ccc(NS(=O)(=O)c2ccc3c(c2)CCN3C(=O)CC)cc1 | inactive: -5.54%
29 | COc1ccc(N2CCN(S(=O)(=O)c3cc(Br)cc4c3N(C(=O)C3CC3)CC4)CC2)cc1 | inactive: -5.66%
30 | Cc1ccc(NC(=O)Cn2c(=O)n(Cc3ccco3)c(=O)c3sc4ccccc4c32)c(C)c1 | inactive: -8.64%
31 | CC(C)(C)OC(=O)N1CCC(c2c(C(=O)N3CCN(c4ccccn4)CC3)cnn2-c2cccc(F)c2)CC1 | inactive: -7.6%
32 | Cc1ccc(S(=O)(=O)c2nnn(CC(=O)Nc3ccccc3C)c2N)cc1 | inactive: -9.51%
33 | COc1ccc(-n2nc(C(=O)N3CCCCC3)c3c4ccccc4n(C)c3c2=O)cc1Cl | inactive: -11.5%
34 | CCOC(=O)c1cc(-c2ccccc2)n(CCC(=O)NCCc2ccc(C)cc2)c1C | inactive: -9.34%
35 | O=C(CSc1nccn1Cc1ccccc1)Nc1nc2ccccc2s1 | inactive: 3.84%
36 | COc1ccc(OC)c(NC(=O)COCc2cc(-c3ccco3)on2)c1 | inactive: -8.5%
37 | O=C(Nc1cccc(C(F)(F)F)c1)c1cc2nc(-c3ccco3)cc(C(F)(F)Cl)n2n1 | inactive: -14.8%
38 | Cc1cc(C)c(Cn2c(=O)n(Cc3ccccc3)c(=O)c3c(C)c(C)sc32)c(C)c1 | inactive: -14%
39 | COc1ccc2c(c1)c1c(c(=O)n(-c3cccc(Cl)c3)c(=O)n1CC(=O)NCC1CCCO1)n2C (configuration not stated) | inactive: -14.5%
40 | CCOc1ccc(NC(=O)CSC2=Nc3ccccc3C3=NC(CCC(=O)NCc4cccs4)C(=O)N23)cc1 (configuration not stated) | inactive: -1.25%
41 | CCOc1ccc(-c2nnc(SCC(=O)NCc3ccc(C)cc3)nc2-c2ccc(OCC)c(OC)c2)cc1OC | inactive: -14.3%
42 | CCOc1ccc(-n2cc(-c3ccccc3)c3c(NC4CCCCC4)ncnc32)cc1 | inactive: -2.22%
43 | Cc1nn(-c2ccccc2)c(OC(=O)c2ccccc2Cl)c1S(=O)(=O)c1ccccc1 | inactive: -7.6%
44 | CC(CNC(=O)c1nnc(Cc2cccc(F)c2)o1)c1ccccc1 (configuration not stated) | inactive: -17.3%
45 | COc1cc(CNCCSc2nnnn2C)ccc1OCc1ccc(F)cc1 | inactive: -5.39%
46 | CCOC(=O)c1[nH]c(C)c(CCC(=O)Nc2cccc(C(F)(F)F)c2)c1C | inactive: -13.6%
47 | CCc1nn2c(=O)cc(COC(=O)c3ccccc3NC(=O)COc3ccc(F)cc3)nc2s1 | inactive: -18.3%
